PMC4336329 (PLoS ONE, 2015)
Screen size: about 310,000 compounds; about 14,000 (4.5%) showed an effect of 50% or more. The effect is printed as a negative number. Some of the results follow.

molecular target: human ether-à-go-go-related gene (hERG) potassium channel (human, UniProt Q12809); experiment: primary screen, population patch clamp on CHO cells stably expressing hERG
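Note: peak tail current of the secondary pulse compared with the same well before compound.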

human ether-à-go-go-related gene (hERG) potassium channel, sequence (Q12809 whole entry, looked up): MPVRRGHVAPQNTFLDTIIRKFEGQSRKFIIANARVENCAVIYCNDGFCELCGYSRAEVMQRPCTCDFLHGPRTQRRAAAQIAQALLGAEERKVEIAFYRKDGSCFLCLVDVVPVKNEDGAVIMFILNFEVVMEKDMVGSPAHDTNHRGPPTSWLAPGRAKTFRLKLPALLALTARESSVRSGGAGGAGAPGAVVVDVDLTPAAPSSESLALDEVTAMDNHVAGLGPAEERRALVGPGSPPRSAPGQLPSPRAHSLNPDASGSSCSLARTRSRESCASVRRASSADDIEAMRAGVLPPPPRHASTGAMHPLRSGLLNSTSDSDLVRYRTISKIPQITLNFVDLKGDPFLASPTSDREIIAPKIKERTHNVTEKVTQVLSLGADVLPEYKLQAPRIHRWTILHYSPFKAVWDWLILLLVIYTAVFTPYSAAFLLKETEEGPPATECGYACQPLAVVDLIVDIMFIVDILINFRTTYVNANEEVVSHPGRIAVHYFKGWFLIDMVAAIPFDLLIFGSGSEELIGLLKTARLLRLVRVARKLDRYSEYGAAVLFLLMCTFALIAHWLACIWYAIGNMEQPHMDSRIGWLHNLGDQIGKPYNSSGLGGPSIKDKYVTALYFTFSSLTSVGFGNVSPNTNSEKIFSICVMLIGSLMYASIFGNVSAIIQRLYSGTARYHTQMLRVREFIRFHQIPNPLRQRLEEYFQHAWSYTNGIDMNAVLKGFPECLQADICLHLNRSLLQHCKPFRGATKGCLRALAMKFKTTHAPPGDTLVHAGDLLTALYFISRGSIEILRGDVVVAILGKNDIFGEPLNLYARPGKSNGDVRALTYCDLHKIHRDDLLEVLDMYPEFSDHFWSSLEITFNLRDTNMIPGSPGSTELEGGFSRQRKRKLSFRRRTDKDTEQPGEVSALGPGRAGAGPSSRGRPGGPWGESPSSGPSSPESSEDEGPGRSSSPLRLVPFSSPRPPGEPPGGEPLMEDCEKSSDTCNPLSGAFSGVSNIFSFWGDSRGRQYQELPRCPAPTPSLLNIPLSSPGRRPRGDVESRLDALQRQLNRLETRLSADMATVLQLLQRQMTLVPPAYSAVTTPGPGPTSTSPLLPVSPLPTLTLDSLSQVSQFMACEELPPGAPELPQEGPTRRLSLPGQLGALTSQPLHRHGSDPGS

Point of comparison: Cc1ccc(S(=O)(=O)/N=C(/Nc2ccc3[nH]c(=O)[nH]c3c2)c2ccc(F)cc2)cc1, “hERG current change (%, negative = inhibition) at 10uM” value -7.77%. Against it:
- O=C1c2ccccc2C(=O)N1CCCc1nc(-c2ccccn2)no1 — higher, -5.5%
- CCOCCc1nnc(NC(=O)C2CC(=O)N(CCc3ccc(F)cc3)C2)s1 (stereo not shown) — higher, 0.628%
- COc1ccc(-n2c(SCC#N)nc3ccccc3c2=O)cc1 — higher, 17.5%
- CCCCNC(=S)N1CCN(c2ccccc2Cl)CC1 — higher, -6.08%
- CCC(c1nnnn1CCOC)N1CCN(c2nc3ccccc3s2)CC1 (stereo not shown) — lower, -34.7%
- COc1ccc(CNc2ncccn2)cc1OC — higher, 14%
- Cc1cc(C)c2c(N)c(C(=O)c3ccc(Br)cc3)oc2n1 — higher, 3.77%
- CC(=O)N/C(=N/c1nc(C)cc(C)n1)Nc1cccc(C)c1C — higher, 3.56%
- CC(C)c1nnc(NC(=O)CCC(=O)NC2CCCc3ccccc32)s1 (stereo not shown) — higher, 6.9%
- O=C(CSc1nc2ccc(N3CCOCC3)cc2c(=O)n1CCc1ccccc1)NCC1CCCO1 (stereo not shown) — lower, -47%
- N#Cc1nc(-c2ccccc2)oc1N1CCCCC1 — higher, -2.67%
- Cc1nnc(-c2ccco2)c2cn(-c3cccc(Br)c3)nc12 — higher, -1.23%
- O=C(CS(=O)(=O)c1c[nH]c2ccccc12)Nc1ccc2c(c1)OCCO2 — higher, 18.7%
- CCOc1ccc(NC(=O)Cn2cc(C(=O)C3CC3)c3ccccc32)cc1 — higher, 1%
- COc1ccc(CCNC(=O)C(=O)c2cn(CC(=O)N3CCOCC3)c3ccccc23)cc1OC — higher, 3.86%
- CCN(CC)c1ccc(S(=O)(=O)N2CCOCC2)cc1NC(=O)CSc1n[nH]c(N)n1 — higher, 5.34%
- CC(C)c1ccc(/C=C/C(=O)Nc2ccc(CN3CCOCC3)cc2)cc1 — lower, -26.7%
- C=CCC(C=C)S(=O)(=O)c1ccc(C)cc1 (stereo not shown) — higher, 7.28%
- COc1ccc2cc(C(=O)NCc3ccco3)c(=O)oc2c1 — higher, 26.7%
- CN(c1ccc(C(=O)NCc2ccco2)cc1)S(C)(=O)=O — higher, 5.87%
- O=C(CCn1c(SCC(=O)NCc2ccco2)nc2ccccc2c1=O)NCCc1ccccc1 — lower, -34.5%
- Cc1cc(C(=O)COc2ccccc2[N+](=O)[O-])c(C)n1C1CC1 — higher, -2.25%
- CCOC(=O)C1C(=O)NC(N2CCN(c3ccccc3)CC2)=NC1c1ccco1 (stereo not shown) — higher, -5.81%
- O=C(CSc1ccc(-c2ccc(Br)cc2)nn1)NC1CCCC1 — higher, 11.7%
- CCCN1CCN(C(=O)c2ccc(-c3ccc([N+](=O)[O-])cc3)o2)CC1 — lower, -78.1%
- COc1ccc(OC(=O)COc2ccc(Cl)cc2)cc1 — higher, 32.2%
- O=C(NCc1cc2ccccc2[nH]1)C1CCC(=O)N(CCCN2CCCC2=O)C1 (stereo not shown) — higher, 17.3%
- O=C(COC(=O)/C=C/c1ccc([N+](=O)[O-])cc1)NCC1CCCO1 (stereo not shown) — higher, -1.77%
- COc1ccc(CCNC(=O)CN2C(=O)c3cccc4cccc(c34)C2=O)cc1OC — higher, 17.6%
- COc1ccc(C)cc1NC(=S)NNC(=O)c1ccccc1Cl — higher, 17.1%
- Cc1noc(C)c1-c1nc(CS(=O)(=O)c2ccccc2)no1 — higher, -4.72%
- CC(=O)C1=C(O)C(=O)N(CCc2c[nH]c3ccccc23)C1c1ccc(C)cc1 (stereo not shown) — higher, 2.3%
- N#Cc1ccccc1CN1C(=O)NC(Cc2c[nH]c3ccccc23)C1=O (stereo not shown) — higher, 10.7%
- O=C(CSc1ncc(-c2ccccc2)n1-c1ccccc1)NCc1ccco1 — higher, -2.21%
- COc1ccc(CNC(=O)C(c2cccs2)N(Cc2ccco2)C(=O)Cc2cccs2)cc1 (stereo not shown) — higher, -7.58%
- Cn1nc(-c2ccc(C(=O)NCCO)cc2)c2ccccc2c1=O — higher, 28.3%
- N#Cc1cccnc1Nc1cccc(Cl)c1 — lower, -11.6%
- CCC(C)Oc1ccccc1C1CC(=O)NC2=C1C(=O)CCC2 (stereo not shown) — higher, 13.1%
- O=C(CSc1nncn1-c1cccnc1)Nc1ccccc1C(F)(F)F — higher, 4.9%
- Clc1ccc(OCCSc2ncccn2)c2ccccc12 — higher, 30.7%
- O=C(NCC1CCCO1)c1ccc2c(=O)n(-c3ccc(F)cc3)c(=S)[nH]c2c1 (stereo not shown) — higher, 20.4%
- Cc1ccc(S(=O)(=O)NCCC(=O)O)cc1 — higher, 25.6%
